Data on eleven compounds can be found in PubChem BioAssay (NCATS).

Where “and” joins values, the source holds several entries; their conditions need not be identical. Equal entries are not always repeated. This is one part of the list. Shown are side measurements of this screen, not its main read-out; they come without a call. For part of these data: The list favours compounds with an active or inconclusive main result. For part of these data: Potencies come from curve fits of mixed quality, noted in brackets.

Assay [1] is described as follows: qHTS Assay for Lipid Storage Modulators (AID 1519). To be noted: Drosophila S3 cells, BODIPY lipid droplet/cell ratio, laser cytometry, cells loaded with oleic acid. The essentials: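 Cells seeded at 5,000 per well were treated with compounds over a concentration series and loaded with oleic acid (400 uM, as added). Lipid droplet fluorescence (488 nm excitation, 500-530 nm channel) was read by laser-scanning cytometry and normalized to 20 uM Triacsin C.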

Assay [2] in a line: qHTS assay for small molecule antagonists of peroxisome proliferator-activated receptor delta signaling (AID 588535).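 Further: cells co-treated with a PPAR-delta agonist as stimulator during compound exposure.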 To be noted: HEK293T PPARd-UAS-bla, beta-lactamase FRET ratio, 18 h; 460 nm channel. The essentials:
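Titrations were run on PPAR-delta-UAS-bla HEK293T cells in charcoal/dextran-stripped serum, incubated 18 h at 37 C. CCF4 fluorescence (460/530 nm) after 2 h RT; Hill equation yields IC50 and maximal response.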
On the technique in general: qHTS replaces the single test concentration by a dilution series.

Assay [3] in a line: qHTS assay for small molecule antagonists of peroxisome proliferator-activated receptor gamma signaling (AID 588537). As to conditions: HEK293 PPARg-UAS-bla, beta-lactamase ratio, antagonist mode; measured here: W460 blue channel. Summed up: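 Antagonist-mode β-lactamase reporter screen run as a titration series. HEK293 PPARγ-UAS-bla cells are stimulated with rosiglitazone (50 nM final) for 16 h, then CCF4 is read at 460/530 nm. Data are scaled between DMSO and rosiglitazone and fitted to the Hill equation.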

Assay [4] is described as follows: qHTS drug screen for cell cycle checkpoint inhibitors in PARPi-resistant BRCA-mutant ovarian cancer cell lines. (AID 1963452). As to conditions: PEO1/OlaR viability, CellTiter-Glo luminescence, 96 h. Summed up:
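PEO1, PEO4 and PEO1/OlaR ovarian cancer cells, 600 per well, exposed 96 h at 37C to a dilution series. Viability read by CellTiter-Glo luminescence, normalized to DMSO and empty wells; activity summarized as Z-AUC.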

Assay [5] can be described thus: qHTS Assay for Modulators of Human Peripheral Myelin Protein 22 (PMP22) Expression/Activity (AID 1967). As to conditions: Cell-based PMP22 reporter, dual-color luciferase ratio. The essentials:
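MSC80 mouse Schwann cells stably carrying Pmp22 promoter–green click beetle luciferase plus EF-alpha–red luciferase control were dosed for 24h at 37 °C. Dual-colour luminescence was filter-overlap corrected; %Activity came from green/red ratio versus untreated cells.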

Assay [6] in a line: qHTS for identification of novel therapeutic agents for treatment of microphthalmiaassociated transcription factor (MiT) renal cell carcinoma (RCC) (AID 1963991). As to conditions: CellTiter-Glo, 48 h; for z-score: stronger effect = lower value. Summed up:
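Three TFE3-fusion RCC lines (UOK109, UOK124, UOK145), 500 cells/well in complete medium, were treated with MIPE 4.0 compounds for 48 hours at 37 C. Viability was by CellTiter-Glo luminescence, normalized to DMSO (100%) and empty wells (0%); curves fitted over 11 concentrations.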

Assay [7] can be described thus: qHTS Validation Assay to Find Inhibitors of Chronic Active B-Cell Receptor Signaling (AID 485345). As to conditions: ABC-DLBCL cells, chronic BCR signaling reporter. Summed up: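 Read-out: ratio of filter-corrected green (IkappaBalpha fusion) to red (native) luciferase signal in doxycycline-induced TMD8 cells after 4 h at 37C. Titration spanned 46 uM–3 nM; Data were normalised to basal cells and 10 uM MG-132 wells.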

Assay [8] is described as follows: Nrf2 qHTS screen for inhibitors: Validation (AID 493153). To be noted: A549 ARE-Fluc reporter, 18-24 h; AC50: CellTiter-Fluor fluorescence read, measured here: cytotoxicity CellTiter-Fluor AC50; viability change: measured here: cytotoxicity max response. Summed up:
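A549 ARE_Fluc, 5% FBS OPTI-MEM; cpd titration, 18-24 h, 37°C/5% CO2. Read 1: CellTiter-Fluor (Ex 405/Em 525), cytotox. Read 2: luciferase lum, Nrf2 activity.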

Setting [9] is: measured here: cell count channel max response.
Where [10] appears, read: measured here: cell number channel AC50.
The mark [11] stands for this setting: measured here: lipid (BODIPY) channel AC50.
Setting [12] is: measured here: lipid channel max response.
Setting [13] is: measured here: PEO1 parental viability.
Where [14] appears, read: measured here: green reporter channel AC50, mouse Pmp22 promoter in mouse Schwann cells.
Where [15] appears, read: measured here: red reporter channel AC50, EF-alpha promoter control reporter in MSC80 mouse Schwann cells.
Where [16] appears, read: TFE3-RCC UOK109 viability, measured here: UOK109 Z-AUC.
The mark [17] stands for this setting: TFE3-RCC viability, measured here: UOK124 Z-AUC.
Setting [18] is: TFE3-RCC viability, measured here: UOK124 cell viability.
The mark [19] stands for this setting: TFE3-RCC viability, measured here: UOK145 Z-AUC.
Where [20] appears, read: TFE3-RCC viability, measured here: UOK145 cell viability.
Where [21] appears, read: measured here: CBR control luciferase (viability counter).
Tags describe the fitted curve by direction and shape.

For the compound `c1ccc2[nH]c(-c3cscn3)nc2c1`, the max response is 39.2% in assay [1] (setting [9]), 70.7% in assay [1] (setting [12]) and 2.06% in assay [2]. Further, the half-maximal activity concentration (AC50) was 17.8 µM [rising, partial curve, poor fit] in assay [1] (setting [10]); 25.1 µM [rising, partial curve] in assay [1] (setting [11]); 50.1 µM [rising, single point] in assay [3]; 0.0692 µM [falling, full curve, poor fit] in assay [4] (setting [13]).

In the case of `OC(CN1CCN(c2cccc(Cl)c2)CC1)C(c1ccccc1)c1ccccc1` (stereo not drawn), the figures for the max response in assay [1] (setting [9]) and in assay [1] (setting [12]) were -11.6% and -7.86%, respectively. For the same compound, the concentration at half-maximal activity (AC50) in assay [1] (setting [10]) is 6.31 µM [falling, single point]; in assay [1] (setting [11]), 6.31 µM [falling, single point]; in assay [5] (setting [14]), 67.5 µM [falling, partial curve]; in assay [5] (setting [15]) it was 67.5 µM [falling, partial curve]; in assay [6] (setting [18]) it was 33.2 µM [falling, single point]; in assay [6] (setting [20]), 33.2 µM [falling, partial curve, poor fit]. In addition, the z-score is 1.06 in assay [6] (setting [16]), -0.21 in assay [6] (setting [17]) and 0.474 in assay [6] (setting [19]).

Consider `CC(CCc1ccc(O)cc1)NCCc1ccc(O)c(O)c1` (stereo not drawn), for which the max response in assay [1] (setting [9]) was -44.5%; in assay [1] (setting [12]) it was -61.3%. Also, the AC50 in assay [1] (setting [10]) was 10 µM [falling, partial curve, poor fit]; in assay [1] (setting [11]), 10 µM [falling, partial curve, poor fit]; in assay [5] (setting [14]), 67.5 µM [falling, partial curve]; in assay [5] (setting [15]), 60.1 µM [falling, partial curve]; in assay [6] (setting [20]), 23.5 µM [falling, partial curve, poor fit]. In addition, the z-score in assay [6] (setting [16]) is -0.152; in assay [6] (setting [17]), -0.104; in assay [6] (setting [19]), 0.661.

As to `CC(C)(C)NCC(O)c1ccc(O)c(CO)c1` (stereo not drawn), the max response in assay [1] (setting [9]) was 30.1% and 36%; in assay [1] (setting [12]) it was 30.5% and 36%. Further, the half-maximal activity concentration (AC50) in assay [1] (setting [10]) was 25.1 µM [falling, single point]; in assay [1] (setting [11]), 25.1 µM [falling, single point]; in assay [5] (setting [15]) it was 84.9 µM [falling, single point]; in assay [4] (setting [13]), 24.5 µM [rising, single point].

`O=C1CCc2cc(OCCCCc3nnnn3C3CCCCC3)ccc2N1`: the max response was 66.5% and 16.2% in assay [1] (setting [9]); 91.6% and 31% in assay [1] (setting [12]). Also, the AC50 is 3.55 µM [rising, full curve] in assay [1] (setting [10]); 3.55 µM [rising, full curve] and 12.6 µM [rising, partial curve, poor fit] in assay [1] (setting [11]); 84.9 µM [falling, single point] in assay [5] (setting [14]); 84.9 µM [falling, single point] in assay [5] (setting [15]); 32.6 µM [rising, single point] in assay [7] (setting [21]); 17.4 µM [falling, partial curve, poor fit] in assay [4] (setting [13]). Moreover, the viability change in assay [8] was -3.36%.

Regarding `Cc1ccc(NC(=O)c2cccc(N(C)C)c2)cc1NC(=O)c1ccc(O)cc1`, the max response in assay [1] (setting [9]) amounted to 100%; in assay [1] (setting [12]) it was 135%. Further, the half-maximal activity concentration (AC50) was 11.2 µM [rising, partial curve] in assay [1] (setting [10]); 4.47 µM [rising, partial curve] in assay [1] (setting [11]); 4.69 µM [falling, full curve] in assay [6] (setting [20]). Further, the z-score is 0.772 in assay [6] (setting [16]), 0.775 in assay [6] (setting [17]) and -0.323 in assay [6] (setting [19]).

For `CC1C(=O)OC2C(O)C34C5CC(C(C)(C)C)C36C(OC(=O)C6O)OC4(C(=O)O5)C12O` (stereo not drawn), the max response in assay [1] (setting [9]) is -9.92%; in assay [1] (setting [12]), -7.3%. Besides, the concentration at half-maximal activity (AC50) in assay [1] (setting [10]) was 0.0708 µM [falling, full curve, poor fit]; in assay [1] (setting [11]), 0.0794 µM [falling, full curve, poor fit]; in assay [6] (setting [20]) it was 2.64 µM [falling, partial curve, poor fit]. In addition, the z-score in assay [6] (setting [16]) is -0.738; in assay [6] (setting [17]), 0.628; in assay [6] (setting [19]) it was -1.46.

On to `CCN(c1ccccc1)c1cc(NC)[n+](C)c(C)n1`, for which the values for the max response in assay [1] (setting [9]) and in assay [1] (setting [12]) were 55.4% and 65.4%, respectively. The AC50 in assay [1] (setting [10]) was 12.6 µM [rising, partial curve, poor fit]; in assay [1] (setting [11]), 14.1 µM [rising, partial curve, poor fit]. For the same compound, the results for the z-score in assay [6] (setting [16]), in assay [6] (setting [17]) and in assay [6] (setting [19]) were -0.999, 0.254 and 0.533, respectively.

In the case of `CCOC(=O)C(C)(C)Oc1ccc(Cl)cc1`, the values for the max response in assay [1] (setting [9]) and in assay [1] (setting [12]) were -7.47% and -4.29%, respectively. The AC50 in assay [1] (setting [10]) is 0.00501 µM [falling, full curve, poor fit]; in assay [1] (setting [11]), 0.00501 µM [falling, full curve, poor fit]; in assay [5] (setting [15]), 84.9 µM [falling, single point]; in assay [4] (measured here: PEO4 viability), 0.0549 µM [rising, full curve, poor fit].

For `O=c1cc(-c2ccccc2)oc2cc(O)c(O)c(O)c12`, the max response was 81.4% and 109% in assay [1] (setting [9]); 126% and 142% in assay [1] (setting [12]). Moreover, the AC50 in assay [1] (setting [10]) is 12.6 µM [rising, full curve] and 15.8 µM [rising, partial curve, poor fit]; in assay [1] (setting [11]), 14.1 µM [rising, full curve] and 25.1 µM [rising, partial curve, poor fit]. Besides, the z-score in assay [6] (setting [16]) is 0.589; in assay [6] (setting [17]) it was 0.806; in assay [6] (setting [19]), 0.943.

Consider `Cc1ccc(S(=O)(=O)N[C@@H](Cc2ccccc2)C(=O)CCl)cc1`, for which the max response was -68.9% in assay [1] (setting [9]) and -86.4% in assay [1] (setting [12]). The AC50 in assay [1] (setting [10]) is 35.5 µM [falling, partial curve, poor fit]; in assay [1] (setting [11]), 35.5 µM [falling, partial curve, poor fit]; in assay [5] (setting [14]) it was 47.8 µM [falling, partial curve]; in assay [5] (setting [15]), 30.1 µM [falling, full curve]; in assay [7] (measured here: CBG/CBR ratio read-out), 20.6 µM [falling, partial curve]; in assay [7] (setting [21]) it was 6.51 µM [falling, full curve]. Also, the concentration at half-maximal activity (AC50) in assay [6] (setting [18]) is 11.8 µM [falling, partial curve]; in assay [6] (setting [20]), 26.4 µM [falling, single point]. Further, the viability change in assay [8] is -12.3%. Moreover, the z-score in assay [6] (setting [16]) amounted to 0.209; in assay [6] (setting [17]), 0.225; in assay [6] (setting [19]) it was 0.333.

What is called AC50 is the concentration giving half of the maximal activity seen.
